# The supplement of paper PMC8728848
# This is one part of the list.
# B1: rCnSL-proA (Clitocybe nebularis) (protein)
# chain: AAFFSLVVLLALLPFGIHASALPSTELTPRVNPNLPGPNDVFVGFRGTNNIVGAIYEKDGIKDTPLNNGADAEMGPGSYITDGLFTARIFASGSAGNNPGTTATVCKIYASGVQWRGAPKGYIPVAYFGNGPTAEQRRQTYLRTLGLPGTAIRFGNLNTNPGQGPTAPRQMVVPPGPLRSLLKASCFPAADTRLPQTLHYFEKRVDWNIITAADSQTWGH
# Tests used:
# Test in all cases: glycan array binding signal (z-score within array); higher = stronger binding
# Settings in all cases: glycan notation: IUPAC condensed, linker removed
# GlcNAc(b1-3)Gal(b1-4)Glc = biological target: GlcNAc(b1-3)Gal(b1-4)Glc
# How it was run: (§1)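 Columns mapping to the same glycan were averaged after glycan names were converted to IUPAC-condensed notation. The data come from 3228 arrays in the Consortium for Functional Glycomics database, limited to those with an available protein sequence. Binding is reported as a within-array Z-score averaged across arrays of one protein sequence and across linkers.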
# [1] = biological target: GlcNAc(b1-3)Gal(b1-4)GlcNAc
# How it was run: as §1
# [2] = biological target: GlcNAc(b1-3)Gal(b1-4)GlcNAc(b1-2)Man(a1-3)[GlcNAc(b1-3)Gal(b1-4)GlcNAc(b1-2)Man(a1-6)]Man(b1-4)GlcNAc(b1-4)GlcNAc
# How it was run: as §1
# [3] = biological target: GlcNAc(b1-3)Gal(b1-4)GlcNAc(b1-2)Man(a1-3)[GlcNAc(b1-3)Gal(b1-4)GlcNAc(b1-2)Man(a1-6)]Man(b1-4)GlcNAc(b1-4)[Fuc(a1-6)]GlcNAc
# How it was run: as §1
# [4] = biological target: GlcNAc(b1-3)Gal(b1-4)GlcNAc(b1-2)[GlcNAc(b1-3)Gal(b1-4)GlcNAc(b1-6)]Man(a1-6)[GlcNAc(b1-3)Gal(b1-4)GlcNAc(b1-2)Man(a1-3)]Man(b1-4)GlcNAc(b1-4)GlcNAc
# How it was run: as §1
# [5] = biological target: GlcNAc(b1-3)Gal(b1-4)GlcNAc(b1-3)Gal(b1-4)GlcNAc
# How it was run: as §1
# [6] = biological target: GlcNAc(b1-3)Gal(b1-4)GlcNAc(b1-3)Gal(b1-4)GlcNAc(b1-2)Man(a1-3)[GlcNAc(b1-3)Gal(b1-4)GlcNAc(b1-3)Gal(b1-4)GlcNAc(b1-2)Man(a1-6)]Man(b1-4)GlcNAc(b1-4)GlcNAc
# How it was run: as §1
# [7] = biological target: GlcNAc(b1-3)Gal(b1-4)GlcNAc(b1-3)Gal(b1-4)GlcNAc(b1-2)Man(a1-3)[GlcNAc(b1-3)Gal(b1-4)GlcNAc(b1-3)Gal(b1-4)GlcNAc(b1-2)Man(a1-6)]Man(b1-4)GlcNAc(b1-4)[Fuc(a1-6)]GlcNAc
# How it was run: as §1
# [8] = biological target: GlcNAc(b1-3)Gal(b1-4)GlcNAc(b1-3)Gal(b1-4)GlcNAc(b1-2)[GlcNAc(b1-3)Gal(b1-4)GlcNAc(b1-3)Gal(b1-4)GlcNAc(b1-6)]Man(a1-6)[GlcNAc(b1-3)Gal(b1-4)GlcNAc(b1-3)Gal(b1-4)GlcNAc(b1-2)Man(a1-3)]Man(b1-4)GlcNAc(b1-4)[Fuc(a1-6)]GlcNAc
# How it was run: as §1
# [9] = biological target: GlcNAc(b1-3)Gal(b1-4)GlcNAc(b1-3)Gal(b1-4)GlcNAc(b1-3)Gal(b1-4)GlcNAc(b1-2)Man(a1-3)[GlcNAc(b1-3)Gal(b1-4)GlcNAc(b1-3)Gal(b1-4)GlcNAc(b1-3)Gal(b1-4)GlcNAc(b1-2)Man(a1-6)]Man(b1-4)GlcNAc(b1-4)GlcNAc
# How it was run: as §1
# [10] = biological target: GlcNAc(b1-3)Gal(b1-4)GlcNAc(b1-3)Gal(b1-4)GlcNAc(b1-3)Gal(b1-4)GlcNAc(b1-2)Man(a1-3)[GlcNAc(b1-3)Gal(b1-4)GlcNAc(b1-3)Gal(b1-4)GlcNAc(b1-3)Gal(b1-4)GlcNAc(b1-2)Man(a1-6)]Man(b1-4)GlcNAc(b1-4)[Fuc(a1-6)]GlcNAc
# How it was run: as §1
# [11] = biological target: GlcNAc(b1-3)Gal(b1-4)GlcNAc(b1-3)Gal(b1-4)GlcNAc(b1-3)Gal(b1-4)GlcNAc(b1-2)[GlcNAc(b1-3)Gal(b1-4)GlcNAc(b1-3)Gal(b1-4)GlcNAc(b1-3)Gal(b1-4)GlcNAc(b1-6)]Man(a1-6)[GlcNAc(b1-3)Gal(b1-4)GlcNAc(b1-3)Gal(b1-4)GlcNAc(b1-3)Gal(b1-4)GlcNAc(b1-2)Man(a1-3)]Man(b1-4)GlcNAc(b1-4)[Fuc(a1-6)]GlcNAc
# How it was run: as §1
# [12] = biological target: GlcNAc(b1-3)Gal(b1-4)GlcNAc(b1-3)Gal(b1-4)GlcNAc(b1-3)Gal(b1-4)GlcNAc(b1-3)Gal(b1-4)GlcNAc(b1-2)Man(a1-3)[GlcNAc(b1-3)Gal(b1-4)GlcNAc(b1-3)Gal(b1-4)GlcNAc(b1-3)Gal(b1-4)GlcNAc(b1-3)Gal(b1-4)GlcNAc(b1-2)Man(a1-6)]Man(b1-4)GlcNAc(b1-4)GlcNAc
# How it was run: as §1
# [13] = biological target: GlcNAc(b1-3)Gal(b1-4)GlcNAc(b1-3)Gal(b1-4)GlcNAc(b1-3)Gal(b1-4)GlcNAc(b1-3)Gal(b1-4)GlcNAc(b1-2)Man(a1-3)[GlcNAc(b1-3)Gal(b1-4)GlcNAc(b1-3)Gal(b1-4)GlcNAc(b1-3)Gal(b1-4)GlcNAc(b1-3)Gal(b1-4)GlcNAc(b1-2)Man(a1-6)]Man(b1-4)GlcNAc(b1-4)[Fuc(a1-6)]GlcNAc
# How it was run: as §1
# [14] = biological target: GlcNAc(b1-3)Gal(b1-4)GlcNAc(b1-3)Gal(b1-4)GlcNAc(b1-3)Gal(b1-4)GlcNAc(b1-3)Gal(b1-4)GlcNAc(b1-2)[GlcNAc(b1-3)Gal(b1-4)GlcNAc(b1-3)Gal(b1-4)GlcNAc(b1-3)Gal(b1-4)GlcNAc(b1-3)Gal(b1-4)GlcNAc(b1-6)]Man(a1-6)[GlcNAc(b1-3)Gal(b1-4)GlcNAc(b1-3)Gal(b1-4)GlcNAc(b1-3)Gal(b1-4)GlcNAc(b1-3)Gal(b1-4)GlcNAc(b1-2)Man(a1-3)]Man(b1-4)GlcNAc(b1-4)[Fuc(a1-6)]GlcNAc
# How it was run: as §1
# [15] = biological target: GlcNAc(b1-3)Gal(b1-4)GlcNAc(b1-3)Gal(b1-4)GlcNAc(b1-3)GalNAc
# How it was run: as §1
# [16] = biological target: GlcNAc(b1-3)Gal(b1-4)GlcNAc(b1-3)GalNAc
# How it was run: as §1
# [17] = biological target: GlcNAc(b1-3)Gal(b1-4)GlcNAc(b1-3)[GlcNAc(b1-3)Gal(b1-4)GlcNAc(b1-3)]GalNAc
# How it was run: as §1
# [18] = biological target: GlcNAc(b1-3)Gal(b1-4)GlcNAc(b1-6)[Gal(b1-3)]GalNAc
# How it was run: as §1
# [19] = biological target: GlcNAc(b1-3)Gal(b1-4)GlcNAc(b1-6)[GlcNAc(b1-3)Gal(b1-3)]GalNAc
# How it was run: as §1
# [20] = biological target: GlcNAc(b1-3)Gal(b1-4)GlcNAc(b1-6)[GlcNAc(b1-3)]Gal(b1-4)GlcNAc
# How it was run: as §1
# GlcNAc(b1-3)GalNAc = biological target: GlcNAc(b1-3)GalNAc
# How it was run: as §1
binder,measurement,setting,value
B1,glycan array binding signal (z-score),GlcNAc(b1-3)Gal(b1-4)Glc,-0.626
same,glycan array binding signal (z-score),[1],-0.454
same,glycan array binding signal (z-score),[2],0.077
same,glycan array binding signal (z-score),[3],-0.353
same,glycan array binding signal (z-score),[4],-0.547
same,glycan array binding signal (z-score),[5],-0.255
same,glycan array binding signal (z-score),[6],3.02
same,glycan array binding signal (z-score),[7],0.405
same,glycan array binding signal (z-score),[8],-0.859
same,glycan array binding signal (z-score),[9],-0.215
same,glycan array binding signal (z-score),[10],0.698
same,glycan array binding signal (z-score),[11],-1.06
same,glycan array binding signal (z-score),[12],-0.269
same,glycan array binding signal (z-score),[13],0.053
same,glycan array binding signal (z-score),[14],-0.432
same,glycan array binding signal (z-score),[15],-0.454
same,glycan array binding signal (z-score),[16],-0.133
same,glycan array binding signal (z-score),[17],0.25
same,glycan array binding signal (z-score),[18],-0.117
same,glycan array binding signal (z-score),[19],-0.125
same,glycan array binding signal (z-score),[20],-0.668
same,glycan array binding signal (z-score),GlcNAc(b1-3)GalNAc,-0.561
